Test results: the supplement of paper PMC4967469
A lower IC50 marks a more sensitive line; a fit beyond the top or the lowest dose is shown as a bound at that dose. The AUC spans the tested range (256-fold, ending at the top dose) of the same fit; values near 1 show little effect. For some assays here: Any top dose called inferred comes from the curve model; the source does not state it.

How the values were obtained:
Test in all cases: Viability of human cancer cell lines after 72 h of drug (GDSC screen)
[1] = compound: COc1ccc(C(=O)CC2(O)C(=O)Nc3c(Cl)ccc(Cl)c32)cc1 [YK 4-279]; conditions: top dose 10 µM
Description: (§1)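 Human cancer cell lines in 384-well plates, medium with 10% serum, drug for 72 h over a 256-fold dose range (nine 2-fold or five 4-fold steps up to the top dose). Adherent lines were fixed and stained with the nucleic acid dye Syto60, suspension lines read with resazurin; signal relative to control wells, capped at 0 and 100%. One two-parameter sigmoid per drug and line, fitted in a mixed model over all curves with the slope shared within a line.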

[2] = compound: COc1cc([C@@H]2c3cc4c(cc3[C@@H](O[C@@H]3O[C@@H]5CO[C@@H](C)O[C@H]5[C@H](O)[C@H]3O)[C@H]3COC(=O)[C@H]23)OCO4)cc(OC)c1O [Etoposide]; conditions: top dose 16 µM
Description: as §1

[3] = compound: COc1cc(C(=O)NC2CCN(C)CC2)ccc1Nc1ncc2c(n1)N(C1CCCC1)C(C)CC(=O)N2C [NPK76-II-72-1]; conditions: top dose 10.24 µM; top dose inferred
Description: as §1

[4] = compound: C=C(c1ccc(C(=O)O)cc1)c1cc2c(cc1C)C(C)(C)CCC2(C)C [Bexarotene]; conditions: top dose 8 µM
Description: as §1

[5] = compound: Oc1nc(-c2ccc(C(F)(F)F)cc2)nc2c1CSCC2 [XAV 939]; conditions: top dose 5 µM; top dose inferred
Description: as §1

[6] = compound: O=C(O)c1ccc(-c2c[nH]c3ncc(-c4ccccc4)cc23)cc1C1CCCC1 [GSK-650394]; conditions: top dose 16 µM; top dose inferred
Description: as §1

[7] = compound: Cc1ccc2nc(NCCN)c3ncc(C)n3c2c1 [BMS-345541]; conditions: top dose 16 µM
Description: as §1

Cell Line | AUC [1] | IC50 [1] [µM] | AUC [2] | IC50 [2] [µM] | AUC [3] | IC50 [3] [µM] | AUC [4] | IC50 [4] [µM] | AUC [5] | IC50 [5] [µM] | AUC [6] | IC50 [6] [µM] | AUC [7] | IC50 [7] [µM]
COR-L105 (lung adenocarcinoma, adherent) | 0.907 | > 10 | 0.801 | 9.91 | 0.892 | > 10.2 | 0.951 | > 8 | 0.918 | > 5 | 0.842 | 15 | 0.846 | 15.7
ChaGo-K-1 (non-small cell lung carcinoma, adherent) | 0.64 | 1.63 | 0.673 | 3.29 | 0.951 | > 10.2 | 0.942 | > 8 | 0.957 | > 5 | 0.887 | > 16 | 0.865 | > 16
ES3 (Ewing sarcoma, adherent) | 0.733 | 3 | 0.446 | 0.709 | 0.743 | 3.33 | 0.966 | > 8 | 0.984 | > 5 | 0.93 | > 16 | 0.851 | 13.2
ES4 (Ewing sarcoma, adherent) | 0.731 | 3.17 | 0.439 | 0.666 | 0.949 | > 10.2 | 0.713 | 2.22 | 0.98 | > 5 | 0.692 | 3.78 | 0.887 | > 16
GAMG (glioma, adherent) | 0.778 | 4.26 | 0.634 | 2.39 | 0.784 | 4.57 | 0.913 | > 8 | 0.934 | > 5 | 0.627 | 2.28 | 0.876 | > 16
GCT (soft tissue, adherent) | 0.675 | 1.84 | 0.699 | 3.45 | 0.989 | > 10.2 | 0.961 | > 8 | 0.985 | > 5 | 0.987 | > 16 | 0.987 | > 16
H2591 (mesothelioma, adherent) | 0.774 | 5.16 | 0.642 | 2.79 | 0.959 | > 10.2 | 0.924 | > 8 | 0.953 | > 5 | 0.927 | > 16 | 0.908 | > 16
H2818 (mesothelioma, adherent) | 0.808 | 5.33 | 0.963 | > 16 | 0.979 | > 10.2 | 0.985 | > 8 | 0.988 | > 5 | 0.989 | > 16 | 0.971 | > 16
HEL (acute myeloid leukaemia, semi-adherent) | 0.782 | 3.46 | 0.72 | 3.68 | 0.878 | 7.47 | 0.989 | > 8 | 0.991 | > 5 | 0.769 | 5.08 | 0.844 | 8.72
HLE (liver, adherent) | 0.703 | 2.24 | 0.417 | 0.603 | 0.744 | 3.04 | 0.945 | > 8 | 0.987 | > 5 | 0.507 | 1.04 | 0.971 | > 16
HO-1-N-1 (head and neck, adherent) | 0.533 | 0.764 | 0.637 | 2.3 | 0.971 | > 10.2 | 0.986 | > 8 | 0.932 | > 5 | 0.975 | > 16 | 0.894 | > 16
HPAF-II (pancreas, adherent) | 0.797 | 6.44 | 0.868 | > 16 | 0.889 | > 10.2 | 0.88 | > 8 | 0.935 | > 5 | 0.977 | > 16 | 0.877 | > 16
HSC-3 (head and neck, adherent) | 0.588 | 1.05 | 0.562 |  | 0.986 | > 10.2 | 0.888 | 6.76 | 0.975 | > 5 | 0.857 | 10.2 | 0.922 | > 16
HTC-C3 (thyroid, adherent) | 0.702 | 2.5 | 0.873 | > 16 | 0.937 | > 10.2 | 0.926 | > 8 | 0.978 | > 5 | 0.815 | 10.2 | 0.896 | > 16
Hs940-T (melanoma, adherent) | 0.848 | 9.99 | 0.536 | 1.28 | 0.984 | > 10.2 | 0.865 | > 8 | 0.941 | > 5 | 0.755 | 6.51 | 0.937 | > 16
Hs-445 (Hodgkin lymphoma, suspension) | 0.704 | 2.22 | 0.381 | 0.483 | 0.824 | 5.48 | 0.989 | > 8 | 0.988 | > 5 | 0.986 | > 16 | 0.842 | 10
IGR-37 (melanoma, adherent) | 0.655 | 1.62 | 0.636 | 2.29 | 0.92 | > 10.2 | 0.811 | 3.8 | 0.981 | > 5 | 0.797 | 6.82 | 0.958 | > 16
JAR (urogenital system, adherent) | 0.554 | 0.876 | 0.958 | > 16 | 0.899 | > 10.2 | 0.987 | > 8 | 0.971 | > 5 | 0.982 | > 16 | 0.838 | 10.5
KALS-1 (glioma, adherent) | 0.768 | 5.17 | 0.79 |  | 0.921 | > 10.2 | 0.844 | > 8 | 0.946 | > 5 | 0.835 | > 16 | 0.806 | 12.1

Cell Line | AUC [1] | IC50 [1] [µM] | AUC [2] | IC50 [2] [µM] | AUC [3] | IC50 [3] [µM] | AUC [4] | IC50 [4] [µM] | AUC [5] | IC50 [5] [µM] | AUC [6] | IC50 [6] [µM] | AUC [7] | IC50 [7] [µM]
KYSE-180 (oesophagus, adherent) | 0.661 | 1.71 | 0.635 | 2.32 | 0.922 | > 10.2 | 0.731 | 2.19 | 0.918 | > 5 | 0.626 | 2.19 | 0.831 | 9.49
KYSE-270 (oesophagus, adherent) | 0.683 | 1.86 | 0.278 | 0.263 | 0.922 | > 10.2 | 0.985 | > 8 | 0.963 | > 5 | 0.609 | 1.9 | 0.866 | 11
LC-2-ad (lung adenocarcinoma, adherent) | 0.571 | 0.985 | 0.548 | 1.35 | 0.663 | 1.84 | 0.891 | > 8 | 0.961 | > 5 | 0.845 | 12 | 0.901 | > 16
LU-99A (large cell lung carcinoma, adherent) | 0.629 | 1.41 | 0.643 | 2.47 | 0.918 | > 10.2 | 0.987 | > 8 | 0.986 | > 5 | 0.871 | 14.8 | 0.979 | > 16
MDA-MB-157 (breast, adherent) | 0.845 | 7.5 | 0.849 | 12.5 | 0.936 | > 10.2 | 0.894 | > 8 | 0.982 | > 5 | 0.984 | > 16 | 0.952 | > 16
MFE-319 (endometrium, adherent) | 0.728 | 2.71 | 0.517 | 1.11 | 0.895 | > 10.2 | 0.865 | 6.73 | 0.962 | > 5 | 0.683 | 3.18 | 0.907 | > 16
MKN1 (stomach, adherent) | 0.756 | 3.59 | 0.388 | 0.482 | 0.926 | > 10.2 | 0.962 | > 8 | 0.977 | > 5 | 0.802 | 8.4 | 0.845 | 12.5
ML-1 (thyroid, adherent) | 0.922 | > 10 | 0.471 | 0.823 | 0.879 | > 10.2 | 0.728 | 2.51 | 0.969 | > 5 | 0.825 | 11.9 | 0.949 | > 16
MZ7-mel (melanoma, adherent) | 0.771 | 3.98 | 0.683 | 3.33 | 0.902 | > 10.2 | 0.985 | > 8 | 0.985 | > 5 | 0.916 | > 16 | 0.776 | 6.61
NB7 (neuroblastoma, adherent) | 0.984 | > 10 | 0.93 | > 16 | 0.882 | > 10.2 | 0.986 | > 8 | 0.759 | 1.82 | 0.879 | > 16 | 0.876 | > 16
NCI-H196 (small cell lung carcinoma, adherent) | 0.954 | > 10 | 0.971 | > 16 | 0.867 | 9.94 | 0.985 | > 8 | 0.987 | > 5 | 0.977 | > 16 | 0.923 | > 16
NCI-H1355 (lung adenocarcinoma, adherent) | 0.724 | 3.65 | 0.43 | 0.591 | 0.972 | > 10.2 | 0.847 | > 8 | 0.767 | 2.71 | 0.835 | > 16 | 0.958 | > 16
NCI-H1915 (large cell lung carcinoma, adherent) | 0.704 | 2.38 | 0.974 | > 16 | 0.892 | > 10.2 | 0.902 | > 8 | 0.986 | > 5 | 0.976 | > 16 | 0.923 | > 16
NCI-H2023 (lung adenocarcinoma, adherent) | 0.773 | 4.87 | 0.816 | 11.8 | 0.972 | > 10.2 | 0.899 | > 8 | 0.953 | > 5 | 0.935 | > 16 | 0.965 | > 16
NCI-H2085 (lung adenocarcinoma, adherent) | 0.912 | > 10 | 0.736 | 5.03 | 0.976 | > 10.2 | 0.942 | > 8 | 0.965 | > 5 | 0.862 | 15.7 | 0.853 | 14.2
NCI-H2170 (lung squamous cell carcinoma, adherent) | 0.82 | 6.07 | 0.587 | 1.75 | 0.94 | > 10.2 | 0.913 | > 8 | 0.942 | > 5 | 0.852 | 13.2 | 0.943 | > 16
NUGC-3 (stomach, adherent) | 0.655 | 1.78 | 0.522 | 1.16 | 0.983 | > 10.2 | 0.917 | > 8 | 0.933 | > 5 | 0.873 | > 16 | 0.915 | > 16
OAW-28 (ovary, adherent) | 0.75 | 4.04 | 0.615 | 2.25 | 0.757 | 4.42 | 0.94 | > 8 | 0.929 | > 5 | 0.89 | > 16 | 0.969 | > 16
OSC-19 (head and neck, adherent) | 0.71 | 2.52 | 0.753 | 5.54 | 0.95 | > 10.2 | 0.984 | > 8 | 0.891 | > 5 | 0.866 | 15.3 | 0.89 | > 16
